# The supplement of paper PMC12217912
# The list shows a part of the results. Sequences were assembled here from the parent chain. Inactive controls read about 0.05.
# B1: TEV protease; numbered along this chain (parent)
# chain: MGESLFKGPRDYNPISSSICHLTNESDGHTTSLYGIGFGPFIITNKHLFRRNNGTLVVQSLHGVFKVKDTTTLQQHLVDGRDMIIIRMPKDFPPFPQKLKFREPQREERICLVTTNFQTKSMSSMVSDTSCTFPSGDGIFWKHWIQTKDGQCGSPLVSTRDGFIVGIHSASNFTNTNNYFTSVPKNFMELLTNQEAQQWVSGWRLNADSVLWGGHKVFMVKPEEPFQPVKEATQL
# Variants of: B1
# Assay: raw area under fraction-flipped curve 0-4 h after induction (AUC4h, not background-subtracted), DNA-recorder readout of cleavage of the substrate (dimensionless); higher = more cleavage of the substrate by the protease variant
# Settings: temperature: 34 °C; time window: 0-4 h after rhamnose induction
# Procedure: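 In vivo DNA recorder in E. coli TOP10(DE3) ΔrhaA at 34 °C. Each TEVp single-site mutant (parent TEVp 0) is paired with a single-site variant of the 7-mer TEVs (canonical ENLYFQ|S). The substrate sits between flexible linkers in a Bxb1-sfGFP-TEVs-SsrA fusion, so cleavage stabilises Bxb1 and speeds flipping of a recombination array, read by NGS. The value is the raw area under the fraction-flipped curve over 0-4 h after rhamnose induction (AUC4h), with ≥20 reads per time point. It is not background-subtracted; inactive controls average about 0.047.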
# 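Note: Bxb1 expression induced with 0.2% (w/v) L-rhamnose at OD600 near 0.5, cultures sampled hourly, flipped fraction per protease–substrate barcode pair counted by paired-end Illumina sequencing.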
Variant,area with substrate ENLDFQS,area with substrate ENLIFQS,area with substrate ENLKFQS,area with substrate ENLNFQS,area with substrate ENLQFQS,area with substrate ENLSFQS,area with substrate ENLVFQS,area with substrate ENLFFQS,area with substrate ENLHFQS,area with substrate ENLEFQS
MGESLFKGPRDYNPISSSICHLTNESDGHTTSLYGIGFGPFIITNKHLFRRNNGTLVVQSLHGVFKVKDTTTLQQHLVDGRDMIIIRMPKDFPPFPQKLKFREPQREERICLVTTNFQTKSMSSMVSDTSCTFPSGDGIFWKHWIQTKDGQCGSPLVSTRDGFIVGIHSASNFTNTNNYFTSVPKNFMELLTNQTAQQWVSGWRLNADSVLWGGHKVFMVKPEEPFQPVKEATQL [E195T],0.0054,0.0762,0.0977,0.0633,0.0949,0.0688,0.104,–,–,–
MGESLFKGPRDYNPISSSICHLTNESDGHTTSLYGIGFGPFIITNKHLFRRNNGTLVVQSLHGVFKVKDTTTLQQHLVDGRDMIIIRMPKDFPPFPQKLKFREPQREERICLVTTNFQTKSMSSMVSDHSCTFPSGDGIFWKHWIQTKDGQCGSPLVSTRDGFIVGIHSASNFTNTNNYFTSVPKNFMELLTNQEAQQWVSGWRLNADSVLWGGHKVFMVKPEEPFQPVKEATQL [T129H],0.0668,–,0.0517,–,–,–,–,0.0561,0.0569,–
MGESLFKGPRDYNPISSSICHLTNESDGHTTSLYGIGFGPFIITNKHLFRRNNGTLVVQSLHGVFKVKDTTTLQQHLVDGRDMIIIRMPKDFPPFPQKLKFREPQREERICLVTTNFQTKSMSSMVSDTSCTFPSGDGIFWKHWIQTKDGQCGSPLVSTRDGFIVGIHSASNFTNTNNYFTSVPKNFMELLTNQEAQQWVSGWRLNADSVLWCGHKVFMVKPEEPFQPVKEATQL [G213C],0.0757,–,0.0689,–,0.0628,0.059,0.0595,–,0.0614,0.0725
MGESLFKGPRDYNPISSSICHLTNESDGHTTSLYGIGFGPFIITNKHLFRRNNGTLVVQSLHGVFKVKDTTTLQQHLVDGRDMIIIRMPKDFPPFPQKLKFREPQREERICLVTTNFQAKSMSSMVSDTSCTFPSGDGIFWKHWIQTKDGQCGSPLVSTRDGFIVGIHSASNFTNTNNYFTSVPKNFMELLTNQEAQQWVSGWRLNADSVLWGGHKVFMVKPEEPFQPVKEATQL [T119A],0.0632,0.0899,0.0753,–,–,0.068,–,0.0882,0.0679,–
MGESLFKGPRDYNPISSSICHLTNESDGHTTSLYGIGFGPFIITNKHLFRRNNGTLVVQSLHGVFKVKDTTTLQQHLVDGRDMIIIRMPKDFPPFPQKLKFREPQREERICLVTTNFQTKSMSSMVSDTSCTFPSGDGIFWKHWIQTKDGQCGSPLVSTRDGFIVGIHSASNFTNTNNYFHSVPKNFMELLTNQEAQQWVSGWRLNADSVLWGGHKVFMVKPEEPFQPVKEATQL [T181H],0.0518,0.0459,–,0.0548,0.047,0.0454,–,–,–,–
MGESLFKGPRDYNPISSSICHLTNESDGHTTSLYGIGFGPFIITNKHLFRRNNGTLVVQSLHGVFKVKDTTTLQQHLVDGRDMIIIRMPKDFPPFPQKLKFREPQREERICLVTTNFQTKSMSSMVSDTSCTFPSGDGIFWKHWIQTKDGQCGSPLVSTRDGFIVGIHSASNFTNTNNYFTSVPKNFMELLTNQEAQSWVSGWRLNADSVLWGGHKVFMVKPEEPFQPVKEATQL [Q198S],0.055,0.0775,0.0567,0.0709,0.0684,0.0624,–,0.0816,–,–
MGESLFKGPRDYNPISSSICHLTNESDGHTTSLYGIGFGPFIITNKHLFRRNNGTLVVQSLHGVFKVKDTTTLQQHLVDGRDMIIIRMPKDFPPFPQKLKFREPQREERICLVTTNFQTKSMSSMVSDTSCTFPSGDGIFWKHWIQTKDGQCGSPLVSTRDGFIVGIHSASNFTNTNNYFTSVPKNFMELLTNAEAQQWVSGWRLNADSVLWGGHKVFMVKPEEPFQPVKEATQL [Q194A],0.0499,–,0.086,–,0.0674,–,–,0.116,0.0713,–
MGESLFKGPRDYNPISSSICHLTNESDGHTTSLYGIGFGPFIIMNKHLFRRNNGTLVVQSLHGVFKVKDTTTLQQHLVDGRDMIIIRMPKDFPPFPQKLKFREPQREERICLVTTNFQTKSMSSMVSDTSCTFPSGDGIFWKHWIQTKDGQCGSPLVSTRDGFIVGIHSASNFTNTNNYFTSVPKNFMELLTNQEAQQWVSGWRLNADSVLWGGHKVFMVKPEEPFQPVKEATQL [T44M],0.0593,0.0296,0.0732,0.0599,–,0.0646,0.0702,0.065,0.0539,0.0073
MGESLFKGPRDYNPISSSICHLTNESDGHTTSLYGIGFGPFIITNKHLFRRNNGTLVVQSLHGVFKVKDTTTLQQHLVDGRDMIIIRMPKDFPPFPGKLKFREPQREERICLVTTNFQTKSMSSMVSDTSCTFPSGDGIFWKHWIQTKDGQCGSPLVSTRDGFIVGIHSASNFTNTNNYFTSVPKNFMELLTNQEAQQWVSGWRLNADSVLWGGHKVFMVKPEEPFQPVKEATQL [Q97G],0.077,–,–,–,0.0643,–,–,0.106,–,–
MGESLFKGPRDYNPISSSICHLTNESDGHTTSLYGIGFGPFIITNKHLFRRNNGTLVVQSLHGVFKVKDTTTLQQHLVDGRDMIIIRMPKDFPPFPQKLKFREPQREERICLVTTNFQTKSMSSMVSDTSCTFPSGDGIFWKHWIQTKDGQCGSPLVSTRDGFIVGIHSASNFTNTNNYFTSVPKNFMELLTNQEAQQWVSGPRLNADSVLWGGHKVFMVKPEEPFQPVKEATQL [W203P],0.0573,–,–,–,–,0.0544,–,0.0633,–,–

# Same assay, conditions: temperature: 34 °C; time window: 0-4 h after rhamnose induction
Variant,area with substrate ENLPFQS,area with substrate ENLRFQS,area with substrate ENLLFQS,area with substrate ENLWFQS,area with substrate ENLMFQS,area with substrate ENLGFQS
MGESLFKGPRDYNPISSSICHLTNESDGHTTSLYGIGFGPFIITNKHLFRRNNGTLVVQSLHGVFKVKDTTTLQQHLVDGRDMIIIRMPKDFPPFPQKLKFREPQREERICLVTTNFQTKSMSSMVSDTSCTFPSGDGIFWKHWIQTKDGQCGSPLVSTRDGFIVGIHSASNFTNTNNYFTSVPKNFMELLTNQEAQQWVSGWRLNADSVLWCGHKVFMVKPEEPFQPVKEATQL [G213C],0.0688,0.0627,–,–,–,–
MGESLFKGPRDYNPISSSICHLTNESDGHTTSLYGIGFGPFIITNKHLFRRNNGTLVVQSLHGVFKVKDTTTLQQHLVDGRDMIIIRMPKDFPPFPQKLKFREPQREERICLVTTNFQAKSMSSMVSDTSCTFPSGDGIFWKHWIQTKDGQCGSPLVSTRDGFIVGIHSASNFTNTNNYFTSVPKNFMELLTNQEAQQWVSGWRLNADSVLWGGHKVFMVKPEEPFQPVKEATQL [T119A],–,0.0757,0.0503,0.0669,–,–
MGESLFKGPRDYNPISSSICHLTNESDGHTTSLYGIGFGPFIITNKHLFRRNNGTLVVQSLHGVFKVKDTTTLQQHLVDGRDMIIIRMPKDFPPFPQKLKFREPQREERICLVTTNFQTKSMSSMVSDTSCTFPSGDGIFWKHWIQTKDGQCGSPLVSTRDGFIVGIHSASNFTNTNNYFHSVPKNFMELLTNQEAQQWVSGWRLNADSVLWGGHKVFMVKPEEPFQPVKEATQL [T181H],0.0666,–,–,0.0572,0.0647,–
MGESLFKGPRDYNPISSSICHLTNESDGHTTSLYGIGFGPFIITNKHLFRRNNGTLVVQSLHGVFKVKDTTTLQQHLVDGRDMIIIRMPKDFPPFPQKLKFREPQREERICLVTTNFQTKSMSSMVSDTSCTFPSGDGIFWKHWIQTKDGQCGSPLVSTRDGFIVGIHSASNFTNTNNYFTSVPKNFMELLTNQEAQSWVSGWRLNADSVLWGGHKVFMVKPEEPFQPVKEATQL [Q198S],0.0741,0.0809,0.0465,–,0.0387,–
MGESLFKGPRDYNPISSSICHLTNESDGHTTSLYGIGFGPFIITNKHLFRRNNGTLVVQSLHGVFKVKDTTTLQQHLVDGRDMIIIRMPKDFPPFPQKLKFREPQREERICLVTTNFQTKSMSSMVSDTSCTFPSGDGIFWKHWIQTKDGQCGSPLVSTRDGFIVGIHSASNFTNTNNYFTSVPKNFMELLTNAEAQQWVSGWRLNADSVLWGGHKVFMVKPEEPFQPVKEATQL [Q194A],0.0515,–,–,–,0.0903,0.063
MGESLFKGPRDYNPISSSICHLTNESDGHTTSLYGIGFGPFIIMNKHLFRRNNGTLVVQSLHGVFKVKDTTTLQQHLVDGRDMIIIRMPKDFPPFPQKLKFREPQREERICLVTTNFQTKSMSSMVSDTSCTFPSGDGIFWKHWIQTKDGQCGSPLVSTRDGFIVGIHSASNFTNTNNYFTSVPKNFMELLTNQEAQQWVSGWRLNADSVLWGGHKVFMVKPEEPFQPVKEATQL [T44M],0.0531,0.0549,0.0606,–,–,–
MGESLFKGPRDYNPISSSICHLTNESDGHTTSLYGIGFGPFIITNKHLFRRNNGTLVVQSLHGVFKVKDTTTLQQHLVDGRDMIIIRMPKDFPPFPGKLKFREPQREERICLVTTNFQTKSMSSMVSDTSCTFPSGDGIFWKHWIQTKDGQCGSPLVSTRDGFIVGIHSASNFTNTNNYFTSVPKNFMELLTNQEAQQWVSGWRLNADSVLWGGHKVFMVKPEEPFQPVKEATQL [Q97G],–,0.0823,–,–,–,–
MGESLFKGPRDYNPISSSICHLTNESDGHTTSLYGIGFGPFIITNKHLFRRNNGTLVVQSLHGVFKVKDTTTLQQHLVDGRDMIIIRMPKDFPPFPQKLKFREPQREERICLVTTNFQTKSMSSMVSDTSCTFPSGDGIFWKHWIQTKDGQCGSPLVSTRDGFIVGIHSASNFTNTNNYFTSVPKNFMELLTNQEAQQWVSGPRLNADSVLWGGHKVFMVKPEEPFQPVKEATQL [W203P],–,0.0616,–,–,0.0455,–
